This is one part of the list. Rule as the data show it: active = 3.2 or more and inactive = the rest. Most of these values are background signal.
What follows are binders tested against SHP2 C-SH2 domain E139D (assay: enrichment score (SH2-bound / input frequency) (ratio); bacterial display of known human phosphotyrosine sites (pTyr-Var adds point mutants) read by sequencing; higher = stronger binding; tyrosines were phosphorylated by kinases first). Details: peptide library: pTyr-Var.
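Also: displayed peptides selected on beads carrying the immobilized SH2 domain, with library peptides lacking any tyrosine serving as negative controls.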

Enrichment score, inactive:
AFPVSYSSSGA [RET_Y687] 0.729
RHAASYSSDSE [REPS1_Y116] 0.561
SSTASYFKAPG [RFX2_Y108_E110K] 0.688
LEYAKYGSLRG [RET_Y809_V804L] 0.836
AKLDEYIAIAK [RCOR3_Y46] 1.15
IENKLYGMSDS [RET_Y1062_P1067S] 0.771
IENKLCGMSDP [RET_Y1062_Y1062C] 0.728
YEREQYADRAR [RBM4_Y355] 0.615
KGPNVYKKTVN [REV3L_Y1156] 0.405
MEYAKYGSLRG [RET_Y809_V804M] 0.824
FEREQYADRTR [RBM4_Y355_A359T_YF] 0.579
VEYAKYGSLQG [RET_Y809_R813Q] 0.592
LSRDVYEEDSF [RET_Y900_YF] 0.681
RTLSEYARRHV [RERE_Y1259_P1262R] 0.633
GGFSRYDEGSG [RECQL5_Y484_D480G] 0.66
LSRDVYEEDSY [RET_Y900] 0.464
MEFAKYGSLRG [RET_Y809_V804M_YF] 0.774
RGGDSYGGPPR [RBMX_Y190_R187G] 0.495
IFRASYVPFAA [RBM47_Y541_G538R_YF] 1.12

What follows are binders tested against SHP2 C-SH2 domain wild-type in the same assay as above. Details: peptide library: pTyr-Var.

Enrichment score, inactive:
AFPVSYSSSGA [RET_Y687] 0.716
RHAASYSSDSE [REPS1_Y116] 0.545
SSTASYFKAPG [RFX2_Y108_E110K] 0.648
LEYAKYGSLRG [RET_Y809_V804L] 0.996
AKLDEYIAIAK [RCOR3_Y46] 1.21
IENKLYGMSDS [RET_Y1062_P1067S] 0.578
IENKLCGMSDP [RET_Y1062_Y1062C] 0.639
YEREQYADRAR [RBM4_Y355] 0.526
KGPNVYKKTVN [REV3L_Y1156] 0.409
MEYAKYGSLRG [RET_Y809_V804M] 0.658
FEREQYADRTR [RBM4_Y355_A359T_YF] 0.723
VEYAKYGSLQG [RET_Y809_R813Q] 1.74
LSRDVYEEDSF [RET_Y900_YF] 0.669
RTLSEYARRHV [RERE_Y1259_P1262R] 0.492
GGFSRYDEGSG [RECQL5_Y484_D480G] 0.559
LSRDVYEEDSY [RET_Y900] 0.461
MEFAKYGSLRG [RET_Y809_V804M_YF] 0.649
RGGDSYGGPPR [RBMX_Y190_R187G] 0.507
IFRASYVPFAA [RBM47_Y541_G538R_YF] 0.857

The binders below were run against SHP2 N-SH2 domain L43F in the same assay as above. Details: peptide library: pTyr-Var.

Enrichment score, inactive:
AFPVSYSSSGA [RET_Y687] 0.693
RHAASYSSDSE [REPS1_Y116] 0.52
SSTASYFKAPG [RFX2_Y108_E110K] 0.722
LEYAKYGSLRG [RET_Y809_V804L] 0.924
AKLDEYIAIAK [RCOR3_Y46] 0.93
IENKLYGMSDS [RET_Y1062_P1067S] 0.806
IENKLCGMSDP [RET_Y1062_Y1062C] 0.657
YEREQYADRAR [RBM4_Y355] 0.516
KGPNVYKKTVN [REV3L_Y1156] 0.414
MEYAKYGSLRG [RET_Y809_V804M] 0.579
FEREQYADRTR [RBM4_Y355_A359T_YF] 0.7
VEYAKYGSLQG [RET_Y809_R813Q] 0.62
LSRDVYEEDSF [RET_Y900_YF] 2.15
RTLSEYARRHV [RERE_Y1259_P1262R] 0.421
GGFSRYDEGSG [RECQL5_Y484_D480G] 0.722
LSRDVYEEDSY [RET_Y900] 0.704
MEFAKYGSLRG [RET_Y809_V804M_YF] 0.489
RGGDSYGGPPR [RBMX_Y190_R187G] 0.578
IFRASYVPFAA [RBM47_Y541_G538R_YF] 0.904

The binders below were run against SHP2 N-SH2 domain T42A in the same assay as above. Details: peptide library: pTyr-Var.

Enrichment score, inactive:
AFPVSYSSSGA [RET_Y687] 0.617
RHAASYSSDSE [REPS1_Y116] 0.403
SSTASYFKAPG [RFX2_Y108_E110K] 0.553
LEYAKYGSLRG [RET_Y809_V804L] 0.637
AKLDEYIAIAK [RCOR3_Y46] 0.764
IENKLYGMSDS [RET_Y1062_P1067S] 0.668
IENKLCGMSDP [RET_Y1062_Y1062C] 0.69
YEREQYADRAR [RBM4_Y355] 0.472
KGPNVYKKTVN [REV3L_Y1156] 0.457
MEYAKYGSLRG [RET_Y809_V804M] 0.509
FEREQYADRTR [RBM4_Y355_A359T_YF] 0.547
VEYAKYGSLQG [RET_Y809_R813Q] 0.661
LSRDVYEEDSF [RET_Y900_YF] 0.509
RTLSEYARRHV [RERE_Y1259_P1262R] 0.567
GGFSRYDEGSG [RECQL5_Y484_D480G] 0.465
LSRDVYEEDSY [RET_Y900] 0.612
MEFAKYGSLRG [RET_Y809_V804M_YF] 0.556
RGGDSYGGPPR [RBMX_Y190_R187G] 0.541
IFRASYVPFAA [RBM47_Y541_G538R_YF] 1.01

Each binder was assayed against SHP2 N-SH2 domain T52S in the same assay as above. Details: peptide library: pTyr-Var.

Enrichment score, inactive:
AFPVSYSSSGA [RET_Y687] 0.725
RHAASYSSDSE [REPS1_Y116] 0.52
SSTASYFKAPG [RFX2_Y108_E110K] 0.689
LEYAKYGSLRG [RET_Y809_V804L] 0.801
AKLDEYIAIAK [RCOR3_Y46] 1.07
IENKLYGMSDS [RET_Y1062_P1067S] 0.727
IENKLCGMSDP [RET_Y1062_Y1062C] 0.613
YEREQYADRAR [RBM4_Y355] 0.58
KGPNVYKKTVN [REV3L_Y1156] 0.479
MEYAKYGSLRG [RET_Y809_V804M] 0.883
FEREQYADRTR [RBM4_Y355_A359T_YF] 0.59
VEYAKYGSLQG [RET_Y809_R813Q] 0.757
LSRDVYEEDSF [RET_Y900_YF] 0.52
RTLSEYARRHV [RERE_Y1259_P1262R] 0.4
GGFSRYDEGSG [RECQL5_Y484_D480G] 0.568
LSRDVYEEDSY [RET_Y900] 0.555
MEFAKYGSLRG [RET_Y809_V804M_YF] 0.67
RGGDSYGGPPR [RBMX_Y190_R187G] 0.643
IFRASYVPFAA [RBM47_Y541_G538R_YF] 1.04

The binders below were run against SHP2 N-SH2 domain wild-type in the same assay as above. Details: peptide library: pTyr-Var.

Enrichment score, inactive:
AFPVSYSSSGA [RET_Y687] 0.719
RHAASYSSDSE [REPS1_Y116] 0.656
SSTASYFKAPG [RFX2_Y108_E110K] 0.587
LEYAKYGSLRG [RET_Y809_V804L] 0.605
AKLDEYIAIAK [RCOR3_Y46] 0.878
IENKLYGMSDS [RET_Y1062_P1067S] 0.706
IENKLCGMSDP [RET_Y1062_Y1062C] 0.717
YEREQYADRAR [RBM4_Y355] 0.791
KGPNVYKKTVN [REV3L_Y1156] 0.465
MEYAKYGSLRG [RET_Y809_V804M] 0.678
FEREQYADRTR [RBM4_Y355_A359T_YF] 0.806
VEYAKYGSLQG [RET_Y809_R813Q] 0.607
LSRDVYEEDSF [RET_Y900_YF] 0.716
RTLSEYARRHV [RERE_Y1259_P1262R] 0.534
GGFSRYDEGSG [RECQL5_Y484_D480G] 0.779
LSRDVYEEDSY [RET_Y900] 0.762
MEFAKYGSLRG [RET_Y809_V804M_YF] 0.575
RGGDSYGGPPR [RBMX_Y190_R187G] 0.809
IFRASYVPFAA [RBM47_Y541_G538R_YF] 1.12

From the supplement of paper PMC10369915
